PMC9911399, “Two distinct binding modes provide the RNA-binding protein RbFox with extraordinary sequence specificity”
Numbering of substitutions follows the chain as printed; changes in the protein carry UniProt numbers. Some of the results follow.

T1: RBFOX1 RRM RbFoxmut (Fox-RRM*) (Homo sapiens, UniProt Q9NWB1 109-208, R118D;E147R;N151S;E152T)
T1 sequence: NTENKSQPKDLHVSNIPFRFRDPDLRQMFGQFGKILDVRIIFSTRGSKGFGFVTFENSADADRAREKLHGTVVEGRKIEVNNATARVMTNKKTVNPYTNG

B1: CGUGCUG (DNA:RNA)
RNA: GGGAGACCGGAAUUCAGAUUGUCCCGUGCUGUUAAAUCCCGUCGUAGCCACCA
DNA 1: CAATCTGAATTCCGGTCTCCC
DNA 2: TGGTGGCTACGACGGGATT
B2: UUACCCC (DNA:RNA)
RNA: B1 RNA with C25U, G26U, U27A, G28C, U30C, G31C
DNA 1: CAATCTGAATTCCGGTCTCCC
DNA 2: TGGTGGCTACGACGGGATT
B3: GCCGGAA (DNA:RNA)
RNA: B1 RNA with C25G, G26C, U27C, C29G, U30A, G31A
DNA 1: CAATCTGAATTCCGGTCTCCC
DNA 2: TGGTGGCTACGACGGGATT
B4: CCCAAUU (DNA:RNA)
RNA: B1 RNA with G26C, U27C, G28A, C29A, G31U
DNA 1: CAATCTGAATTCCGGTCTCCC
DNA 2: TGGTGGCTACGACGGGATT
B5: CACACCA (DNA:RNA)
RNA: B1 RNA with G26A, U27C, G28A, U30C, G31A
DNA 1: CAATCTGAATTCCGGTCTCCC
DNA 2: TGGTGGCTACGACGGGATT
B6: GUGACAG (DNA:RNA)
RNA: B1 RNA with C25G, G26U, U27G, G28A, U30A
DNA 1: CAATCTGAATTCCGGTCTCCC
DNA 2: TGGTGGCTACGACGGGATT
B7: AGCAGUC (DNA:RNA)
RNA: B1 RNA with C25A, U27C, G28A, C29G, G31C
DNA 1: CAATCTGAATTCCGGTCTCCC
DNA 2: TGGTGGCTACGACGGGATT
B8: GAUACUA (DNA:RNA)
RNA: B1 RNA with C25G, G26A, G28A, G31A
DNA 1: CAATCTGAATTCCGGTCTCCC
DNA 2: TGGTGGCTACGACGGGATT
B9: UCGAUGA (DNA:RNA)
RNA: GGGAGACCGGAAUUCAGAUUGUCCUCGAUGAUUAAAUCCCGUCGUAGCCACCA
DNA 1: CAATCTGAATTCCGGTCTCCC
DNA 2: TGGTGGCTACGACGGGATT
B10: AAGGGUG (DNA:RNA)
RNA: B1 RNA with C25A, G26A, U27G, C29G
DNA 1: CAATCTGAATTCCGGTCTCCC
DNA 2: TGGTGGCTACGACGGGATT
B11: AUUAAGA (DNA:RNA)
RNA: B9 RNA with U25A, C26U, G27U, U29A
DNA 1: CAATCTGAATTCCGGTCTCCC
DNA 2: TGGTGGCTACGACGGGATT
B12: AGCCCAC (DNA:RNA)
RNA: B1 RNA with C25A, U27C, G28C, U30A, G31C
DNA 1: CAATCTGAATTCCGGTCTCCC
DNA 2: TGGTGGCTACGACGGGATT
B13: GGAUCUC (DNA:RNA)
RNA: B1 RNA with C25G, U27A, G28U, G31C
DNA 1: CAATCTGAATTCCGGTCTCCC
DNA 2: TGGTGGCTACGACGGGATT
B14: UACGGGA (DNA:RNA)
RNA: B9 RNA with C26A, G27C, A28G, U29G
DNA 1: CAATCTGAATTCCGGTCTCCC
DNA 2: TGGTGGCTACGACGGGATT
B15: UCUUUCG (DNA:RNA)
RNA: B9 RNA with G27U, A28U, G30C, A31G
DNA 1: CAATCTGAATTCCGGTCTCCC
DNA 2: TGGTGGCTACGACGGGATT
B16: CUGGACA (DNA:RNA)
RNA: B1 RNA with G26U, U27G, C29A, U30C, G31A
DNA 1: CAATCTGAATTCCGGTCTCCC
DNA 2: TGGTGGCTACGACGGGATT
B17: UGCUAAG (DNA:RNA)
RNA: B1 RNA with C25U, U27C, G28U, C29A, U30A
DNA 1: CAATCTGAATTCCGGTCTCCC
DNA 2: TGGTGGCTACGACGGGATT
B18: AAUAUAU (DNA:RNA)
RNA: B9 RNA with U25A, C26A, G27U, G30A, A31U
DNA 1: CAATCTGAATTCCGGTCTCCC
DNA 2: TGGTGGCTACGACGGGATT
B19: AGGCCGG (DNA:RNA)
RNA: B1 RNA with C25A, U27G, G28C, U30G
DNA 1: CAATCTGAATTCCGGTCTCCC
DNA 2: TGGTGGCTACGACGGGATT
B20: CGUGUUA (DNA:RNA)
RNA: B1 RNA with C29U, G31A
DNA 1: CAATCTGAATTCCGGTCTCCC
DNA 2: TGGTGGCTACGACGGGATT

target: T1, RBFOX1 RRM RbFoxmut (Fox-RRM*); test: EMSA; HiTS-Eq, 1 nM pool, 10 min; buffer printed only for the single-RNA assays: 10 mM Tris pH 7.5, 150 mM NaCl, 3.4 mM EDTA, 0.001% NP-40, 30 C; settings: tags: His6 N-terminal (pET28a); label: 5' 32P
Outline: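 These values rest on relative association constants, computed from read-count changes of each RNA species versus the control reaction and normalised to the cognate motif. Reads came from free RNA recovered by 8% native PAGE after purified RbFox RRM (wild type or mutant) at increasing concentrations was equilibrated for 10 min in 50 µL with 1 nM of a 5′-radiolabelled pool with 7 randomized nucleotides and DNA-annealed flanks.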

Row | Binder | binding signal
1 | B1 | 0.126 KA relative to UGCAUGU
2 | B2 | 0.0534 KA relative to UGCAUGU
3 | B3 | 0.0679 KA relative to UGCAUGU
4 | B4 | 0.0634 KA relative to UGCAUGU
5 | B5 | 0.0781 KA relative to UGCAUGU
6 | B6 | 0.0828 KA relative to UGCAUGU
7 | B7 | 0.0754 KA relative to UGCAUGU
8 | B8 | 0.0759 KA relative to UGCAUGU
9 | B9 | 0.07 KA relative to UGCAUGU
10 | B10 | 0.143 KA relative to UGCAUGU
11 | B11 | 0.1 KA relative to UGCAUGU
12 | B12 | 0.0751 KA relative to UGCAUGU
13 | B13 | 0.0701 KA relative to UGCAUGU
14 | B14 | 0.0657 KA relative to UGCAUGU
15 | B15 | 0.0501 KA relative to UGCAUGU
16 | B16 | 0.0347 KA relative to UGCAUGU
17 | B17 | 0.0956 KA relative to UGCAUGU
18 | B18 | 0.0999 KA relative to UGCAUGU
19 | B19 | 0.0906 KA relative to UGCAUGU
20 | B20 | 0.126 KA relative to UGCAUGU
